# Assay results from PubChem BioAssay AID1346428 (National Center for Advancing Translational Sciences (NCATS), 2018).
# The campaign covered roughly 48,000 compounds. About 1,200 (2.5%) were called active. Roughly 2% stayed inconclusive and do not appear here.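 How the source made its calls: active means activation of at least 60% and not above a set upper limit (about 1 call in 100 departs from these limits); inconclusive means activation of 40% to 60%, or above that upper limit; inactive means activation under 40%.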 The list shows a part of the results.
# Biological target: Probable G-protein coupled receptor 32 (Homo sapiens) (UniProt O75388)
# Sequence of UniProt O75388 (O75388 whole entry, looked up): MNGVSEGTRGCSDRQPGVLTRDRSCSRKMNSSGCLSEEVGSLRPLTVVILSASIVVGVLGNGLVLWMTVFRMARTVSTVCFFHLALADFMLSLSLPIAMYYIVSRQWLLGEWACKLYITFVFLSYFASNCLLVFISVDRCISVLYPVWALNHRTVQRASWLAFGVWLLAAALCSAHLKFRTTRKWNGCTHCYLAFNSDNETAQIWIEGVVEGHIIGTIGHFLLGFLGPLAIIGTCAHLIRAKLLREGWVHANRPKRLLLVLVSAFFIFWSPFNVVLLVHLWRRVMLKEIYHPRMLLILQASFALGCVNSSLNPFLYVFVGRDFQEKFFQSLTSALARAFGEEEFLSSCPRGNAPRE
# Assay: qHTS for Agonists of Human Resolvin D1 Receptor DRV1; further: 0% is about no effect
# Conditions: CHO-K1 GPR32 beta-arrestin PathHunter luminescence, 90 min; at 76.9 µM; stronger effect = higher value; zero percent set by DMSO-only wells
# How it was run: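 Engineered CHO-K1 line co-expressing GPR32-ProLink and EA-beta-arrestin. Compound treatment lasted 90 min at 37 °C. Luminescence was recorded after 1 h with substrate at ambient temperature, relative to DMSO basal wells.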
row,Structure (SMILES),activation
1,Cc1ccc(-n2c(SCC(=O)N3CCC(C)CC3)nc3c([nH]c4ccccc43)c2=O)cc1,inactive: -12.4%
2,COc1cccc(-c2ccnc3[nH]n(-c4ccccc4)c(=O)c23)c1,inactive: 2.91%
3,CC(C)c1nnc(NC(=O)c2nc(S(=O)(=O)Cc3ccccc3)ncc2Cl)s1,inactive: -21%
4,Cc1ccc(NC(=O)c2ccc(F)c(S(=O)(=O)N3CCc4ccccc4C3)c2)cc1F,inactive: -2.56%
5,COc1ccc2c(c1)c(=O)c(C(=O)c1ccc(Cl)cc1)cn2CC(=O)Nc1ccc2c(c1)OCO2,inactive: 14.7%
6,CCN(Cc1ccccc1)C(=O)CCS(=O)(=O)c1ccc2c(c1)oc(=O)n2C,inactive: -10.3%
7,Cn1c(=O)n(CCCc2ccccc2)c(=O)c2c1nc1n2CCN1c1ccccc1,inactive: -2.11%
8,CCOC(=O)c1scc(-c2ccc(C)cc2)c1S(=O)(=O)Nc1ccc(F)c(F)c1,inactive: -6.42%
9,CCOc1ccc(CCNC(=O)c2ccc3c(c2)N(Cc2cccc(Cl)c2)C(=O)c2ccccc2S3(=O)=O)cc1OCC,inactive: -22.8%
10,CCOC(=O)N1CCc2c(sc(NCc3sccc3C)c2C(=O)Nc2ccccc2OCC)C1,active: 62.6%
11,CCOC(=O)c1ccc(NC(=O)CN2C(=O)CC(c3ccc(C)c(C)c3)=Nc3ccccc32)cc1,inactive: -16.4%
12,Cc1c(Cl)cccc1NC(=O)NCCOCCn1c(=O)oc2ccccc21,inactive: -27.4%
13,Cc1cc(-c2nc3ccccc3s2)ccc1NC(=O)c1cc(Cl)ccc1Cl,inactive: -19.6%
14,COc1ccc2c(C)c(CCC(=O)NCc3ccc(OC)c(OC)c3)c(=O)oc2c1,inactive: 1.65%
15,Cc1sc(NC(=O)COc2ccc(C(C)(C)C)cc2)c(C(=O)OC(C)C)c1C,inactive: -8.7%
16,CCOc1cc(C2c3c(oc4ccccc4c3=O)C(=O)N2Cc2ccccc2Cl)ccc1O (stereo unspecified),inactive: -4.87%
17,CCc1ccc(N2C(=O)CS(=O)(=O)C23C(=O)N(Cc2ccccc2F)c2ccccc23)cc1 (stereo unspecified),inactive: -22.9%
18,CCN1CCN(C(=O)c2cnn(-c3cccc(C)c3)c2C2CCN(C(=O)OC(C)(C)C)CC2)CC1,inactive: -12.9%
19,COc1cccc(CNC(=O)c2cccn2-c2nnc(N3CCCC3)s2)c1,inactive: 1.66%
20,COc1ccc(C2CC(=O)c3c([nH]c(C(=O)OCCOc4ccccc4)c3C)C2)cc1OC (stereo unspecified),inactive: 29.6%
21,CCn1cc(C(=O)N2CCN(c3ccccc3)CC2)c(=O)c2cc(S(=O)(=O)N3CCC(C)CC3)ccc21,inactive: -12.3%
22,Cc1onc(-c2c(Cl)cccc2Cl)c1C(=O)N[C@@H]1C(=O)N2[C@@H]1SC(C)(C)[C@@H]2C(=O)O,inactive: -29.1%
23,CCOc1ccc(NC(=O)c2cn3c4c(ccc(Cl)c4c2=O)OC(C)C3)cc1 (stereo unspecified),inactive: 11%
24,COc1cc(-c2noc(-c3cc(C)[nH]n3)n2)cc(OC)c1OC,inactive: -2.06%
25,COc1cccc(NC(=O)C2CCN(S(=O)(=O)c3cc(-c4noc(C)n4)ccc3C)CC2)c1,inactive: -7.61%
26,COc1ccc(NC(=O)N(Cc2ccco2)C2CCN(C(C)=O)CC2)c(OC)c1,inactive: -3.89%

row,Structure (SMILES),activation
1,COc1ccc(CNC(=O)C2CCN(S(=O)(=O)c3cn(C)cn3)CC2)cc1,inactive: -11.1%
2,N[C@@H](CCC(=O)N[C@H](CSN=O)C(=O)NCC(=O)O)C(=O)O,inactive: -3.14%
3,Cc1ccc(S(=O)(=O)c2nc(-c3ccccc3)oc2SCC(=O)NC2CCCCC2)cc1,inactive: -8.29%
4,COc1cccc(C2Nc3ccccc3-c3nnc(SCc4ccccc4)nc3O2)c1OC (stereo unspecified),inactive: -1.68%
5,COc1ccc(NC(=O)C(CC(C)C)NS(=O)(=O)c2ccc3c(c2)oc(=O)n3C)cc1Cl (stereo unspecified),inactive: 24.1%
6,CCOC(=O)C1=C(CS(=O)(=O)c2ccc(C)c(C)c2)NC(=O)NC1c1ccccc1OCC (stereo unspecified),inactive: 2.96%
7,CCOc1ccc(NC(=O)Cn2c(=O)n(Cc3nc(-c4ccccc4)no3)c(=O)c3ccccc32)cc1,inactive: -4.59%
8,O=C(Cn1c(=O)ccc2cc(S(=O)(=O)N3CCCC3)ccc21)NCc1ccc(F)cc1,inactive: 14.3%
9,COc1ccc(N(CC(=O)N2CCN(c3cccc(OC)c3)CC2)S(=O)(=O)c2c(C)noc2C)cc1,inactive: -2.63%
10,COc1cc(OC)c(NC(=O)c2ccc3c(Cl)c4c(nc3c2)CCCC4)cc1Cl,inactive: 15.1%
11,COc1ccc(CCNC(=O)CSCc2nc(-c3ccc(OC)c(OC)c3)oc2C)cc1OC,inactive: -28.2%
12,Cn1c(-n2cccc2)c(-c2c(-c3ccc(F)cc3)[nH]c3c2c(=O)[nH]c(=O)n3C)c(=O)[nH]c1=O,inactive: -14.7%
13,CC1CCCN(C(=O)Cn2c(=O)n(CC3CCC(C(=O)NC(C)C)CC3)c(=O)c3sccc32)C1 (stereo unspecified),inactive: -8.88%
14,COCCNc1ccc(-c2nc(-c3cccc(C)c3)no2)cc1[N+](=O)[O-],inactive: 1.37%
15,CN1C(=O)c2ccccc2Sc2ccc(NC(=O)COc3ccc(Cl)cc3)cc21,inactive: 4.75%
16,CN1C(C)(C)CCCC1(C)C,inactive: 5.7%
17,COc1ccc(-n2ncc3c2ncn2nc(-c4ccc(Cl)cc4Cl)nc32)cc1,inactive: -17.7%
18,COc1cccc(OC)c1Cn1nnc2c(=O)[nH]c(C3CCN(C(=O)c4ccccc4)CC3)nc21,inactive: -28.3%
19,COc1cccc(CCNc2ncnc3c2nnn3C)c1,inactive: 10.3%
20,CCCCOC(=O)c1ccc(NC(=O)/C(C#N)=C/c2ccc(-c3ccccc3)o2)cc1,inactive: -14.9%
21,COc1cc2c(=O)n(CCC(=O)NCC3CCCO3)c(=O)n(CC(=O)Nc3c(C)cccc3C)c2cc1OC (stereo unspecified),inactive: 0.608%
22,O=C(CCCn1c(=O)c2ccccc2n(CC(=O)Nc2ccc(F)cc2F)c1=O)NCc1ccccc1Cl,inactive: -5.55%
23,O=C(NCc1ccc(F)cc1)c1cc2c(s1)-c1ccccc1SC2,inactive: -5.95%
24,COc1ccc(NC(=O)c2cc3c(=O)n(Cc4ccco4)ccc3nc2C)c(OC)c1,inactive: -8.97%
25,COc1cc(-c2nnc(SCC(=O)NC(C)C)o2)cc(OC)c1OC,inactive: -6.3%
